Test results taken from the supplement of paper PMC4967469.
The IC50 comes from the fitted curve, where viability falls to half of the control; fits outside the tested doses are given as limits. The AUC spans the tested range (256-fold, ending at the top dose) of the same fit; the more sensitive the line, the further below 1. For part of these data: The top dose, if marked as inferred, comes from the curve model; the source does not state it.

Key:
Assay in all cases: Viability of human cancer cell lines after 72 h of drug (GDSC screen)
BMX-IN-1 (QL-XII-61) = compound: C=CC(=O)Nc1cc(-n2c(=O)ccc3cnc4ccc(-c5ccc(NS(C)(=O)=O)cc5)cc4c32)ccc1C [BMX-IN-1 (QL-XII-61)]; conditions: top dose 10 µM; top dose inferred
Protocol: (§1)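 Human cancer cell lines in 384-well plates, medium with 10% serum, drug for 72 h over a 256-fold dose range (nine 2-fold or five 4-fold steps up to the top dose). Adherent lines were fixed and stained with the nucleic acid dye Syto60, suspension lines read with resazurin; signal relative to control wells, capped at 0 and 100%. One two-parameter sigmoid per drug and line, fitted in a mixed model over all curves with the slope shared within a line.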

CCT018159 = compound: CCc1cc(-c2n[nH]c(C)c2-c2ccc3c(c2)OCCO3)c(O)cc1O [CCT018159]; conditions: top dose 10 µM; top dose inferred
Protocol: as §1

Dimethyloxalylglycine = compound: COC(=O)CNC(=O)C(=O)OC [Dimethyloxalylglycine]; conditions: top dose 4000 µM; top dose inferred
Protocol: as §1

OSI-027 = compound: COc1cccc2cc(-c3nc([C@H]4CC[C@H](C(=O)O)CC4)n4ncnc(N)c34)[nH]c12 [OSI-027]; conditions: top dose 20 µM
Protocol: as §1

Vismodegib = compound: CS(=O)(=O)c1ccc(C(=O)Nc2ccc(Cl)c(-c3ccccn3)c2)c(Cl)c1 [Vismodegib]; conditions: top dose 10 µM; top dose inferred
Protocol: as §1

VX-11e = compound: Cc1cnc(Nc2ccc(F)cc2Cl)nc1-c1c[nH]c(C(=O)N[C@H](CO)c2cccc(Cl)c2)c1 [VX-11e]; conditions: top dose 5.12 µM; top dose inferred
Protocol: as §1

TG101348 = compound: Cc1cnc(Nc2ccc(OCCN3CCCC3)cc2)nc1Nc1cccc(S(=O)(=O)NC(C)(C)C)c1 [TG101348]; conditions: top dose 10.24 µM
Protocol: as §1

UNC1215 = compound: O=C(c1ccc(C(=O)N2CCC(N3CCCC3)CC2)c(Nc2ccccc2)c1)N1CCC(N2CCCC2)CC1 [UNC1215]; conditions: top dose 1 µM; top dose inferred
Protocol: as §1

BIX02189 = compound: CN(C)Cc1cccc(N=C(c2ccccc2)c2c(O)[nH]c3cc(C(=O)N(C)C)ccc23)c1 [BIX02189]; conditions: top dose 20 µM; top dose inferred
Protocol: as §1

17-AAG = compound: C=CCNC1=C2C[C@@H](C)C[C@H](OC)[C@H](O)[C@@H](C)/C=C(\C)[C@H](OC(N)=O)[C@@H](OC)/C=C\C=C(/C)C(=O)NC(=CC1=O)C2=O [17-AAG]; conditions: top dose 1 µM
Protocol: as §1

Doxorubicin = compound: COc1cccc2c1C(=O)c1c(O)c3c(c(O)c1C2=O)C[C@@](O)(C(=O)CO)C[C@@H]3O[C@H]1C[C@H](N)[C@H](O)[C@H](C)O1 [Doxorubicin]; conditions: top dose 1.024 µM
Protocol: as §1

| Cell Line | AUC (BMX-IN-1 (QL-XII-61)) | IC50 (BMX-IN-1 (QL-XII-61)) [µM] | AUC (CCT018159) | IC50 (CCT018159) [µM] | AUC (Dimethyloxalylglycine) | AUC (OSI-027) | IC50 (OSI-027) [µM] | AUC (Vismodegib) | IC50 (Vismodegib) [µM] | AUC (VX-11e) | IC50 (VX-11e) [µM] | AUC (TG101348) | IC50 (TG101348) [µM] | AUC (UNC1215) | IC50 (UNC1215) [µM] | AUC (BIX02189) | IC50 (BIX02189) [µM] | IC50 (Dimethyloxalylglycine) [µM] | AUC (17-AAG) | IC50 (17-AAG) [µM] | AUC (Doxorubicin) | IC50 (Doxorubicin) [µM] |
| --- | --- | --- | --- | --- | --- | --- | --- | --- | --- | --- | --- | --- | --- | --- | --- | --- | --- | --- | --- | --- | --- | --- |
| A375 (melanoma, adherent) | 0.961 | > 10 | 0.777 | 3.32 | 0.438 | 0.991 | > 20 | 0.895 | 8.37 | 0.623 | 0.653 | 0.991 | > 10.2 | 0.99 | > 1 | – | – | – | – | – | – | – |
| SCC-4 (head and neck, adherent) | 0.982 | > 10 | 0.839 | 8.78 | 0.662 | 0.914 | > 20 | 0.98 | > 10 | 0.92 | > 5.12 | 0.932 | > 10.2 | 0.982 | > 1 | 0.974 | > 20 | 771 | – | – | – | – |
| HCC2998 (large intestine, adherent) | 0.855 | 7.61 | 0.953 | > 10 | 0.816 | 0.896 | > 20 | 0.962 | > 10 | 0.873 | 4.7 | 0.924 | > 10.2 | – | – | 0.986 | > 20 | 2140 | – | – | – | – |
| IM-95 (stomach, adherent) | 0.984 | > 10 | 0.936 | > 10 | 0.523 | 0.549 | 1.72 | – | – | 0.872 | > 5.12 | 0.861 | 9.62 | – | – | 0.93 | > 20 | 291 | – | – | – | – |
| EBC-1 (lung squamous cell carcinoma, adherent) | – | – | 0.851 | 9.19 | 0.479 | 0.51 | 1.34 | 0.95 | > 10 | 0.902 | > 5.12 | 0.885 | > 10.2 | 0.977 | > 1 | 0.982 | > 20 | 218 | 0.282 | 0.0138 | 0.529 | 0.0776 |
| JiyoyeP-2003 (Burkitt lymphoma, suspension) | – | – | 0.924 | > 10 | 0.53 | 0.701 | 4.23 | 0.976 | > 10 | 0.979 | > 5.12 | 0.909 | > 10.2 | 0.987 | > 1 | 0.958 | > 20 | 299 | 0.97 | > 1 | 0.64 | 0.148 |
| SW962 (urogenital system, adherent) | – | – | 0.855 | > 10 | 0.594 | 0.729 | 6.66 | 0.969 | > 10 | 0.948 | > 5.12 | 0.872 | > 10.2 | 0.962 | > 1 | 0.947 | > 20 | 483 | 0.453 | 0.0451 | 0.476 | 0.054 |
| SBC-5 (small cell lung carcinoma, adherent) | – | – | 0.91 | 9.49 | 0.733 | 0.976 | > 20 | 0.993 | > 10 | 0.993 | > 5.12 | 0.981 | > 10.2 | 0.99 | > 1 | 0.993 | > 20 | 990 | 0.682 | 0.181 | 0.392 | 0.0342 |
| U-118-MG (glioma, adherent) | – | – | 0.788 | 5.15 | 0.685 | 0.799 | 11.4 | 0.982 | > 10 | 0.985 | > 5.12 | 0.985 | > 10.2 | 0.984 | > 1 | 0.947 | > 20 | 901 | 0.722 | 0.297 | 0.84 | 0.87 |
| D-502MG (glioma, adherent) | – | – | 0.969 | > 10 | 0.824 | 0.557 | 1.94 | 0.973 | > 10 | 0.958 | > 5.12 | 0.731 | 4.29 | 0.964 | > 1 | 0.938 | > 20 | > 4000 | 0.941 | > 1 | 0.881 | > 1.02 |
| JM1 (B-cell lymphoma, suspension) | – | – | 0.963 | > 10 | 0.299 | 0.324 | 0.436 | 0.984 | > 10 | 0.987 | > 5.12 | 0.691 | 2 | 0.979 | > 1 | 0.905 | > 20 | 74.9 | 0.977 | > 1 | 0.428 | 0.042 |
| BE2-M17 (neuroblastoma, adherent) | – | – | 0.958 | > 10 | 0.84 | 0.842 | 14.6 | 0.987 | > 10 | 0.977 | > 5.12 | 0.901 | > 10.2 | 0.986 | > 1 | 0.983 | > 20 | 2870 | 0.9 | > 1 | 0.842 | 0.753 |
| MOLP-8 (myeloma, suspension) | – | – | 0.932 | > 10 | 0.342 | 0.097 | < 0.0781 | 0.986 | > 10 | 0.744 | 1.55 | 0.382 | 0.307 | 0.984 | > 1 | 0.85 | 14.2 | 92.5 | 0.948 | > 1 | 0.533 | 0.0787 |
